Test results published in the supplement of paper PMC7826260.
Some of the results follow. Viral Rep nickase domains cut single-stranded DNA in vitro for 1 h at 37 °C with 3 µM enzyme; only the middle of the 90-letter strands is printed. The score is log2 (uncut reads / reads without enzyme); the lower, the more was cut; hits are not called. Because reads are shares of a total, they shift together; values above 0 arise when much of the pool is cut.

Experiments:
Assay in all cases: uncleaved DNA left, log2 of reads against the no-enzyme library (log2 ratio); higher = less cleavage (more negative = more Rep cleavage of the k-mer); sequences stand for … in CTCGTCCG…ACCGGAGA
[1] = test system: T1, Rep nickase domain of Muscovy duck circovirus
T1 sequence (Rep 1-111, printed without the tag): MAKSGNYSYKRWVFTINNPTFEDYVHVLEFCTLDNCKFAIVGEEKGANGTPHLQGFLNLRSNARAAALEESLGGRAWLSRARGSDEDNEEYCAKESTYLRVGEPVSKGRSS
Method: (§1)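 A pool of 90-nt single-stranded DNAs with seven random bases just before the constant AC of the nick site (name = the seven bases) was cut by 3 µM recombinant His6-SUMO-tagged Rep nickase domain (300 nM DNA, 50 mM HEPES pH 8.0, 50 mM NaCl, 1 mM MnCl2, 1 h, 37 °C, three replicates). Uncut DNA was amplified and sequenced.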

[2] = test system: T2, Rep nickase domain of banana bunchy top virus
T2 sequence (Rep 1-94, printed without the tag): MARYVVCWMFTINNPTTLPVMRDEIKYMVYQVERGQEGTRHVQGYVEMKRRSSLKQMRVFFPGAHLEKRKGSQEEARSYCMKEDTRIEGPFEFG
Method: as §1

[3] = test system: T3, Rep nickase domain of cabbage leaf curl virus
T3 sequence (Rep 1-116, printed without the tag): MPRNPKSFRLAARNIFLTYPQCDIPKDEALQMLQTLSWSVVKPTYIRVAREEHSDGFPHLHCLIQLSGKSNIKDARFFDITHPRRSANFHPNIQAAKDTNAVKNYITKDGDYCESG
Method: as §1

[4] = test system: T4, Rep nickase domain of chickpea chlorotic dwarf virus
T4 sequence (Rep 1-124, printed without the tag): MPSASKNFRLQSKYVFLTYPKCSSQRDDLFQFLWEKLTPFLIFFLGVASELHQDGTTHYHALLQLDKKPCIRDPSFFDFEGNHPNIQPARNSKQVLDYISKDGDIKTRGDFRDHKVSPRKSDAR
Method: as §1

[5] = test system: T5, Rep nickase domain of faba bean necrotic yellows virus
T5 sequence (Rep 1-98, printed without the tag): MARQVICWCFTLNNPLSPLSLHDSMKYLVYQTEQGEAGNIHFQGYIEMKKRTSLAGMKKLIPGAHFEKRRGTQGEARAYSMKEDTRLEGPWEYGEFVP
Method: as §1

[6] = test system: T6, Rep nickase domain of maize striate mosaic virus
T6 sequence (Rep 1-117, printed without the tag): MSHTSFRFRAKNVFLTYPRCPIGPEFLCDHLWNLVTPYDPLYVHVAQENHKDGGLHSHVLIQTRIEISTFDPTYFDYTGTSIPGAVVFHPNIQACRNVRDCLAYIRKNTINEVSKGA
Method: as §1

[7] = test system: T7, Rep nickase domain of porcine circovirus 2
T7 sequence (Rep 2-116, printed without the tag): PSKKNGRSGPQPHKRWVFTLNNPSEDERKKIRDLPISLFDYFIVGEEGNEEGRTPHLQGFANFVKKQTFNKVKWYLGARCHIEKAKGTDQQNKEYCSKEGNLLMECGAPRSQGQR
Method: as §1

[8] = test system: T8, Rep nickase domain of tomato golden mosaic virus
T8 sequence (Rep 1-124, printed without the tag): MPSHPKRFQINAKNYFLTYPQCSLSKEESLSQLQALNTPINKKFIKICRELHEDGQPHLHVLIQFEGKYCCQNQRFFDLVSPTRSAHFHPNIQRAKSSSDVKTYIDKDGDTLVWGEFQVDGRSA
Method: as §1

[9] = test system: T9, Rep nickase domain of tomato yellow leaf curl virus
T9 sequence (Rep 1-136, printed without the tag): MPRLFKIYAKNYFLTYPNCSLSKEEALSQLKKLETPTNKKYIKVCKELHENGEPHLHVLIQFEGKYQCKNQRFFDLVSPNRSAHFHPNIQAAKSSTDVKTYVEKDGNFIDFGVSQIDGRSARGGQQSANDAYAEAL
Method: as §1

[10] = test system: T10, Rep nickase domain of wheat dwarf virus
T10 sequence (Rep 1-137, printed without the tag): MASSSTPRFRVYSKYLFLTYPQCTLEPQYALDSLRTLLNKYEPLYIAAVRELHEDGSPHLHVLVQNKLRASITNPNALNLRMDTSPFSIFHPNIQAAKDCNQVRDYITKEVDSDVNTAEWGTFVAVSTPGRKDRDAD
Method: as §1

Row | Sequence | uncleaved DNA left (log2) [1] | uncleaved DNA left (log2) [2] | uncleaved DNA left (log2) [3] | uncleaved DNA left (log2) [4] | uncleaved DNA left (log2) [5] | uncleaved DNA left (log2) [6] | uncleaved DNA left (log2) [7] | uncleaved DNA left (log2) [8] | uncleaved DNA left (log2) [9] | uncleaved DNA left (log2) [10]
1 | GTTGGTC | 0.0276 | 0.0462 | 0.423 | 0.999 | -0.0193 | 1.53 | 0.0888 | 0.0993 | 0.0371 | 0.00872
2 | CACGCGG | -0.0141 | 0.00435 | 0.301 | 1.2 | 0.0165 | 1.18 | 0.0377 | 0.0677 | -0.0385 | 0.0458
3 | ACCTATA | -0.145 | -0.0347 | -0.385 | -1.5 | -0.0765 | -0.856 | -0.133 | -0.00281 | -0.169 | -0.126
4 | TTCGGTG | 0.0868 | -0.173 | -0.536 | -0.938 | -0.207 | -0.86 | 0.00234 | 0.0187 | -0.102 | -0.0962
5 | ATCCGCC | -0.0505 | -0.0106 | -0.146 | -0.252 | 0.059 | -0.789 | 0.149 | -0.091 | 0.00975 | -0.0619
6 | TTTTCAG | -0.0627 | -0.113 | -0.726 | -0.893 | -0.0035 | -1.14 | 0.101 | -0.1 | 0.0383 | -0.116
7 | GTTCCCT | 0.148 | 0.0871 | 0.328 | 0.68 | 0.0236 | 1.66 | -1.05 | 0.0947 | 0.0137 | 0.207
8 | ATAAATT | 0.0428 | 0.0241 | 0.111 | -2.75 | 0.0636 | -0.601 | -0.415 | -0.00849 | -0.0128 | -0.0278
9 | CAACTGT | 0.114 | -0.0391 | -0.185 | -0.381 | -0.0323 | 0.553 | 0.0348 | -0.0839 | -0.118 | 0.0119
10 | ATTCTTT | -1.25 | -1.01 | -0.192 | -2.7 | -0.0072 | -0.66 | -2.66 | -0.13 | -0.0379 | -0.0562
11 | TCTTCTA | -0.0753 | -0.144 | 0.027 | -1.25 | 0.0389 | -0.361 | -0.3 | 0.0303 | -0.1 | -0.0387
12 | CGTCTGG | -0.101 | -0.0917 | -0.18 | 0.355 | -0.24 | 0.338 | 0.0351 | -0.156 | -0.186 | -0.161
13 | AAACCGG | -0.0108 | -0.013 | 0.315 | 1.09 | -0.0391 | 1.02 | -0.0576 | 0.0981 | -0.0889 | 0.0601
14 | GAACTAG | 0.142 | 0.132 | -0.366 | -0.591 | 0.179 | -0.825 | 0.118 | 0.0925 | 0.128 | 0.0884
15 | TTAAAGT | 0.192 | 0.154 | 0.169 | -0.317 | 0.115 | -0.621 | 0.0395 | 0.00468 | 0.0786 | 0.0293
